The source of these data is patent US20190321426A1, “COMBINATION THERAPIES WITH CANNABIS PLANT EXTRACT” (TIKUN OLAM LTD, priority 2016, published 2019).

This assay relates to infiltration of immune cells into the spinal cord in EAE mice. Kind of assay: Histology of immune cell infiltration into the spinal cord in EAE mice (eosin/hematoxylin). Conditions: sixty days after PLP injection; versus non-treated control mice.

For the substance glatiramer acetate [Copaxone], the “infiltration of immune cells into the spinal cord” value was “almost total reduction”.
